This is one part of the list.
tested on: T1, C. trachomatis L2/434/Bu expressing GFP (CTL2-GFP); parameters: species or system HeLa; C. trachomatis total inclusion area by high-content imaging, normalised to DMSO; conditions: total inclusion area; 28.5 h, 10 µM; inhibitor
T1 construct: L2/434/Bu GFP intracellular growth in HeLa cells
Method in brief: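 High-content images of fixed, Hoechst-stained infected cultures supply inclusion area and count (growth) plus nuclei number (viability), complementing bulk GFP/resorufin fluorescence. MIC determination is unchanged from the primary assay.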

Compound	% of control remaining
O=C(CSCCO)Nc1cccc2ccccc12 [CBK265623]	109.977
O=C(O)CCC(=O)Nc1ccccc1Sc1ccc(Cl)cc1 [CBK287015]	100.612
CCOC(=O)CSc1nc(C)cc(Oc2ccc(=O)n(C)n2)n1 [CBK269476]	82.2899
CC1CCn2c3c(c4cccc1c42)CCNCC3 (stereo not shown) [CBK018012C]	35.7751
Cc1cc(C)c2oc(-c3cccc(NC(=O)c4cccc(Cl)c4Cl)c3C)nc2c1 [CBK264005]	103.296
NNc1nc(-c2ccc(Br)cc2)nc2ccccc12 [CBK262860]	86.7365
COc1cccc(-c2noc(Cn3cnc4sccc4c3=O)n2)c1 [CBK297127]	85.5231
CC1CCN(S(=O)(=O)c2ccc(S(=O)(=O)Nc3ncnn3C)cc2)CC1 [CBK306470]	43.6366
COc1cccc2c3c([nH]c12)CCCC3 [CBK000331]	94.8234
CC(C)[C@@H](CO)n1c(=O)[nH]c2ncc(-c3ccc(N4CCOCC4)cc3)nc21 [CBK064770]	130.085
O=C(Cn1cc(Br)ccc1=O)NC1CCCN(Cc2ccccc2)C1 (stereo not shown) [CBK305668]	106.298
Nc1ncnc2sc3c(c12)CCN(C(=O)c1ccc2nccnc2c1)C3 [CBK295588]	98.9635
Cc1ccc2[nH]c3c(c2c1)CCN(C=O)C31CCN(Cc2ccc(OC(F)F)cc2)CC1 [CBK040438]	84.4013
Cc1ccc(N2C(=O)N[C@@H]3CCN(C(=O)c4ccc(C(C)(C)C)cc4)[C@@H]3C2=O)cc1 [CBK289284]	108.548
Cn1c(C2CC(=O)N(c3ccc(Cl)cc3)C2)nc2ccccc21 (stereo not shown) [CBK287783]	94.5974
COc1ccc(NC(=O)CCC(=O)O)c(OC)c1 [CBK265451]	84.446
CN(C)CCCNC(=S)NC(=O)c1ccccc1 [CBK265317]	93.1069
C/C(=C\C(=O)NC1CC(C)(C)NC(C)(C)C1)NC1CC(C)(C)NC(C)(C)C1 [CBK261982]	108.908
COc1ccc(OCCNC(=O)c2ccc(C)nc2NCCCn2ccnc2)cc1 [CBK076385]	93.0256
CCn1ncc(S(=O)(=O)Nc2ccc3c(ccn3C)c2)c1C [CBK282730]	103.958
CCC(C)NC(=O)Cn1c(C2CCOCC2)cc2cc(C)cnc21 (stereo not shown) [CBK284756]	101.61

Compound	% of control remaining
COCCn1c(=O)[nH]c2ncc(-c3ccsc3)nc21 [CBK064156]	71.2519
Cc1ccc(S(=O)(=O)N(C)c2c(C)ccc(S(=O)(=O)N3CCN(C)CC3)c2C)cc1 [CBK265642]	104.346
CN1CCN(c2cc(-c3ccccc3N(C)C)nc3ccnn23)CC1 [CBK037158]	82.4864
O=C(c1cscn1)N1C2CCC1CC(O)(c1ccco1)C2 (stereo not shown) [CBK284135]	78.5989
CS(=O)(=O)c1ccc(-c2cnc(N)c3ncccc23)cc1 [CBK067593]	104.36
O=C(NC(Cc1cnc[nH]1)C(=O)O)c1ccccc1 (stereo not shown) [CBK059018]	118.141
CC1CCc2sc3ncnc(N4CCN(CCOC(c5ccccc5)c5ccccc5)CC4)c3c2C1 (stereo not shown) [CBK264884]	117.101
CC(C)(CSc1nnc(Nc2ccccc2)s1)NS(=O)(=O)c1ccc(Cl)cc1 [CBK266388]	91.3777
O=S(=O)(c1ccc(F)c(Cl)c1)n1ccc2c(N3CCNCC3)nccc21 [CBK059059C]	61.2215
COc1cc(C=C2SC(NCC(=O)O)=NC2=O)ccc1OCc1ccc(Cl)cc1Cl [CBK297555]	35.5148
FC(F)(F)c1nnc2ccc(-n3ccnc3)nn12 [CBK020041]	77.6564
Cc1ccc(S(=O)(=O)Nc2c(C(=O)O)[nH]c3ccccc23)cc1 [CBK049880]	88.3531
N#CCCSc1nnc(-c2cccnc2)n1Cc1ccccc1 [CBK267526]	98.5328
Cc1c(NC2CCN(c3ccc(C#N)cc3)C2=O)cnn1C1CCCC1 (stereo not shown) [CBK304735]	70.7531
O=C(Cn1c(-c2cccs2)cc2cccnc21)NCC1CC1 [CBK282553]	111.31
O=c1[nH]c2ccccc2n1CCCN1CCC(Cc2ccccc2)CC1 [CBK138318]	90.6352
COC(=O)CCc1ccc(Oc2ncc(C(F)(F)F)cc2Cl)cc1 [CBK161628]	87.2851
CCOc1ccc(S(=O)(=O)NCc2ccncc2)cc1NC(C)=O [CBK269527]	86.9222
CCOC(=O)C1CCCN1Cc1ccccc1 (stereo not shown) [CBK278278G]	80.4345
Cc1ccc(OCc2cc(C)on2)c(Br)c1 [CBK002837]	88.3084
COc1ccc(CCNC(=O)c2ccccc2N(C)S(C)(=O)=O)cc1 [CBK266833]	107.686

Compound	% of control remaining
COc1ccc2[nH]cc(CCNC(=O)CCCN(C)C)c2c1 [CBK116202]	106.981
Cc1nc(NC(=N)Nc2ccccc2C(F)(F)F)[nH]c(=O)c1Cc1ccccc1 [CBK269083]	98.3913
O=C(Cc1cccs1)N1CCC(O)(c2cccnc2)CC1 [CBK283501]	82.8613
COC(=O)c1c(NC(=O)CC2Nc3ccccc3NC2=O)sc2c1CCC2 (stereo not shown) [CBK269307A]	100.328
O=C(NCC(=O)N1CCc2ccccc2C1)C1CCCCC1 [CBK306049]	59.7058
S=c1nc[nH]cc1-c1ccc(Br)cc1 [CBK005833]	86.7205
Cc1cc2nc(-c3ccccc3)[nH]c2cc1C [CBK086484]	96.5819
Cc1ccc(NC2=NC3(N=C(N)N2)C(=O)N(C)c2ccccc23)cc1 (stereo not shown) [CBK270157]	76.1599
Cc1nn(C)c(Cl)c1S(=O)(=O)Nc1ccnn1C [CBK062072]	100.351
C[C@@H]1CN(C(=O)c2cncn2C)C[C@H](C)O1 [CBK200370]	118.019
CCNc1nccnc1-c1ccc(O)cc1 [CBK088589]	117.886
Cc1cc(NC(=O)CN2CCC(CSc3ccccc3)C2)no1 (stereo not shown) [CBK306136]	104.362
COc1ccc(COc2nc3c(c(=O)n(C)c(=O)n3C)n2Cc2ccc(Cl)c(Cl)c2)cc1 [CBK268779]	90.2253
O=S(=O)(c1cccc2nsnc12)N1CCN(C2CCCCC2)CC1 [CBK268173]	81.5093
CCC(=O)Nc1ccc(O)cc1C(=O)O [CBK126818]	89.6635
Cc1cc(NS(=O)(=O)c2ccc(C(C)C)cc2)n[nH]1 [CBK044646]	94.5558
COc1ccc(Oc2cncc(OC3CCN(Cc4ccc(Cl)c(Cl)c4)C3)n2)cc1OC (stereo not shown) [CBK084391]	71.2239
CCOC(=O)N1CCN(CC(O)COc2cc(C)c(Cl)c(C)c2)CC1 (stereo not shown) [CBK033833C]	96.5406
OC(CN1CCC(O)(c2ccc3c(c2)OCO3)CC1)c1ccc2c(c1)CCC2 (stereo not shown) [CBK286326]	91.6433
Cc1cccc(-c2n[nH]/c(=N/C(=O)c3ccccc3F)s2)c1 [CBK287957]	102.382
N#CCCCN1CCC(Oc2nccnc2OCc2ccc(Br)cc2F)CC1 [CBK153647]	85.2768

Compound	% of control remaining
O=C(O)c1cccc(Sc2cc(C(F)(F)F)ccn2)c1 [CBK093590]	84.5082
CC(=O)c1cccc(NC(=O)CN(c2cc(Cl)ccc2Cl)S(=O)(=O)c2ccc(C)cc2)c1 [CBK268897]	52.088
COc1cccc(-c2nccnc2C2CCCN(S(=O)(=O)c3ccc(F)cc3)C2)c1 (stereo not shown) [CBK286138]	79.6616
O=C(c1cc(C2CC2)n[nH]1)N1CCn2cc(C(F)(F)F)nc2C1 [CBK284749]	85.4948
CC1CCN(C(=O)C2C3CCC4(CC(=O)c5ccccc5O4)C32)CC1 (stereo not shown) [CBK284872]	112.87
COc1cccc2cc(C(=O)NCC3COc4ccccc4O3)oc12 (stereo not shown) [CBK149791]	95.5495
CCC(C)(C)c1ccc(S(=O)(=O)Nc2n[nH]cc2Br)cc1 [CBK043734]	92.8279
CCN(CC)C(=O)c1ccsc1NS(=O)(=O)c1cccc2cccnc12 [CBK042317]	88.5709
CC(C)(C)OC(=O)N1CCN(Cc2ncc(-c3ccccc3)o2)CC1 [CBK306281]	61.1438
O=S(=O)(c1cccc(C(F)(F)F)c1)n1ccc2c(CN3CCC[C@@H]3CO)cccc21 [CBK116167T]	73.9171
CCCNc1cc(C)c(C#N)c2nc3ccccc3n12 [CBK288097]	127.374
O=C(O)C1CCCN(C(=O)NCc2cccc(C(F)(F)F)c2)C1 (stereo not shown) [CBK161345]	91.2962
O=C(CSc1nc2ccccc2s1)c1cccc([N+](=O)[O-])c1 [CBK262130]	110.22
CCCCOC(=O)c1ccccc1NC(=O)NCCc1cccs1 [CBK043573]	90.4442
CC(=O)Nc1nonc1OCCOc1nonc1NC(C)=O [CBK020227]	64.8809
O=C(CSc1nnnn1-c1cccnc1)NC1CCCCCC1 [CBK270092]	114.165
Cn1c(=O)n(Cc2ccc(Cl)cc2)c2cccnc21 [CBK282333]	97.7607
CC(NC(=O)c1ncoc1-c1ccccc1F)c1ccccn1 (stereo not shown) [CBK282402]	102.778
CCCCNC(=S)N[C@H]1CC[C@@]2(Cc3ccc(OC)cc3)CCN(C)[C@H]2C1 [CBK004258]	40.0855

Reference: article PMC12040169 (PLOS Biology, 2025)
